These results are taken from PubChem BioAssay AID1346428 (National Center for Advancing Translational Sciences (NCATS), 2018).

About 1,200 (2.5%) of roughly 48,000 compounds were called active. Inconclusive results (about 2%) are left out.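 The calls were made as follows: active = activation of at least 60% and not above a set upper limit (about 1 call in 100 departs from these limits); inconclusive = activation of 40% to 60%, or above that upper limit; inactive = activation under 40%.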 This is one part of the list.

Chain of UniProt O75388 (O75388 whole entry, looked up): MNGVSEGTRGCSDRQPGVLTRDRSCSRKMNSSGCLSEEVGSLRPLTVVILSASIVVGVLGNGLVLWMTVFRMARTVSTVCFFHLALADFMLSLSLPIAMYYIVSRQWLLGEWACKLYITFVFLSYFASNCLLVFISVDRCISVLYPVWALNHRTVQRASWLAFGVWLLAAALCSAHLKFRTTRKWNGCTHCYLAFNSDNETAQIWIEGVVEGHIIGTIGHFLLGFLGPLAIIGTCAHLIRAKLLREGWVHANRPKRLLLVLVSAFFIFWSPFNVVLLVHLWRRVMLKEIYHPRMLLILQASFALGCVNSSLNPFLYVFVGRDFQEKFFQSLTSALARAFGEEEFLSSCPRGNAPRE

In the test the target is Probable G-protein coupled receptor 32 (Homo sapiens) (UniProt O75388). Nature of the test: qHTS for Agonists of Human Resolvin D1 Receptor DRV1. Also: 0% is about no effect. As to conditions: CHO-K1 GPR32 beta-arrestin PathHunter luminescence, 90 min; at 76.9 µM; stronger effect = higher value; zero percent set by DMSO-only wells. The procedure, abridged:
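Cells are plated overnight, treated with compounds in DMSO for 90 minutes at 37 °C, and developed with PathHunter detection reagent for 1 hour before luminescence is read; signal reflects beta-arrestin binding to GPR32 in engineered CHO-K1 cells.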
(In general: qHTS replaces the single test concentration by a dilution series.)
Consider `CCC(=O)Nc1nnc(S(=O)(=O)N(C)Cc2ccc(Cl)cc2)s1`, for which the activation is inactive: -12.6%. Turning to `COc1ccc(OC)c(NC(=O)CSC2=Nc3ccccc3C3=NC(CCC(=O)NCc4ccco4)C(=O)N23)c1` (configuration not stated), the activation is inactive: -5.35%. The figure for `O=S1(=O)c2ccccc2N(Cc2ccc(Cl)cc2F)c2ccccc21` is inactive: -8.26%.

Consider `CN(C)S(=O)(=O)c1ccc2c(c1)c(=O)c(C(=O)N1CCN(c3cccc(Cl)c3)CC1)cn2C`, for which the activation is inactive: 11.9%. In the case of `CCOc1ccccc1NC(=O)CSC1=Nc2ccccc2C2=NC(CC(=O)NC3CCCCC3)C(=O)N12` (configuration not stated), the activation is inactive: -17.1%. The figure for `CCOc1ccc(CN2C(=O)c3ccccc3Sc3ccc(C(=O)N4CCN(C)CC4)cc32)cc1` is inactive: -3.64%; for `COc1ccc(N2CCN(CCCNC(=O)Nc3ccccc3Cl)CC2)cc1` it is inactive: 10.4%; for `COc1ccc(CCNC(=O)CN(c2ccc(C)cc2)S(=O)(=O)c2ccc(OC)cc2)cc1` it is inactive: -12.7%. For `CCOc1ccc(-c2nc3c(c(SCC(=O)N4CCCCC4)n2)Cc2cc(C)ccc2O3)cc1` the value was inactive: -11.3%. Regarding `Cc1cc(NC(=O)c2cccnc2)cc(-c2nc3cc(Cl)ccc3o2)c1O`, the activation is inactive: 15.9%. The figure for `CCC(CC)C(=O)Nc1c(C(=O)N2CCN(c3ccccc3F)CC2)oc2ccccc12` is inactive: -29.5%. With `CCC(Sc1nc2cc(OC)c(OC)cc2c(=O)n1Cc1ccc(Cl)cc1)C(=O)NCCOC` (configuration not stated), the activation is inactive: -17.4%.

As to `Brc1ccc(-c2ccc(CNCCSc3nnnn3-c3ccccc3)o2)cc1`, the activation was inactive: -16.9%.

On to `O=C(NC1CC(=O)N(c2ccccc2)C1)c1ccc(S(=O)(=O)N2CCOCC2)cc1` (configuration not stated), for which the activation was inactive: 0.96%.

For `CCOC(=O)CC(NC(=O)c1cc2cc(Cl)ccc2oc1=O)c1ccc(C)cc1` (configuration not stated), the activation is inactive: 31.9%. Regarding `COc1ccccc1N1CCN(c2ccc3cc(S(=O)(=O)N4CCCCC4)ccc3n2)CC1`, the activation was inactive: -3.93%.

Consider `Cc1cc(C)cc(Oc2c(C(F)(F)F)oc3c(CN4CCCC(C)C4)c(O)ccc3c2=O)c1` (configuration not stated), for which the activation is inactive: -4.62%.

For `COc1ccc(OC)c(NC(=O)CSc2n[nH]c(-c3ccccc3Cl)n2)c1`, the activation is inactive: 13%.

In the case of `c1ccc(-c2cn(-c3ccccc3)c3ncnc(N4CCN(c5ccccc5)CC4)c23)cc1`, the activation was inactive: -7.54%.

Consider `COc1ccc(Br)c2c1-c1nc(NC(=O)c3cccc(C)c3)sc1C2`, for which the activation was inactive: -28.6%.

Turning to `CC1CCN(C(=O)CSc2c3c(nc4cc(Cl)ccc24)CCCC3)CC1`, the activation was inactive: 16.6%. In the case of `Cc1ccc(-c2nnc(SCCOc3ccccc3)o2)cc1`, the activation is inactive: -0.549%. For `CCOc1ccc(-n2nc(CO)c(C(=O)NCc3ccc(Cl)cc3)n2)cc1` the value was inactive: 16.1%; for `Cc1ccc(C(=O)Nc2ccc(-n3c(C)nc4ccccc4c3=O)cc2)cc1[N+](=O)[O-]`, inactive: 9.18%; for `COc1ccc(CCNC(=O)Cc2c(C)c3cc(OC)c(OC)cc3oc2=O)cc1`, inactive: 18.7%. `Cc1cccc(C)c1OCC(=O)Nc1nonc1-c1ccc(Br)cc1`: the activation is inactive: -0.528%.

`CCOc1ccc2oc(=O)cc(CN3CCN(c4ccc(OC)cc4)CC3)c2c1`: the activation was inactive: -15%. The figure for `CCN(C(=O)c1cc2c(s1)-c1c(C)cccc1OC2)c1cc(C)ccc1C` is inactive: -3.98%; for `O=C(Nc1nc2n(n1)C(c1ccc(F)cc1)C=C(c1ccc(Cl)cc1)N2)c1ccco1` (configuration not stated) it is inactive: -3.62%. For `CCOC(=O)c1ccc(N2C(=O)c3n[nH]c(-c4cccs4)c3C2c2ccc(O)c(OC)c2)cc1` (configuration not stated) the value was inactive: 6.81%. The figure for `CCN(C(=O)CCS(=O)(=O)c1cccc2nsnc12)c1cccc(C)c1` is inactive: -12.4%. For the molecule `O=C(NCC12CC3CC(CC(C3)C1)C2)c1cc2nc(-c3ccc(Cl)cc3)cc(C(F)(F)F)n2n1`, the activation was inactive: -6.83%.

For the molecule `COc1ccc(OC)c(NC(=O)Cn2c(=O)oc3cc(S(=O)(=O)NCc4ccccc4)ccc32)c1`, the activation is inactive: -8.56%. Regarding `CCc1nc2ccc(C(=O)NCCc3ccc(SC)cc3)cc2nc1CC`, the activation is inactive: -24%. Regarding `COC(=O)c1c(SCC(=O)Nc2cccc(C(F)(F)F)c2)[nH]c2ccccc2c1=O`, the activation was inactive: 1.99%. In the case of `COc1ccc(NC(=O)C(CC(C)C)NC(=O)C2CCCCC2)c(OC)c1` (configuration not stated), the activation was inactive: 1.2%.

In the case of `Cc1cc(S(=O)(=O)Nc2cc3c(cc2N2CCOCC2)n(C)c(=O)n3C)ccc1F`, the activation was inactive: -15.9%.

For `Clc1cccc(-c2nnc(CN3CCN(c4ccccn4)CC3)o2)c1`, the activation is inactive: 5.9%.

On to `CC(C)NC(=O)Cn1ncn2c(cc3cc(F)ccc32)c1=O`, for which the activation was inactive: -1.68%. As for `COc1ccc(-n2c(=O)c3ccccc3n(Cc3ccc(F)cc3Cl)c2=O)cc1OC`, the activation was inactive: 4.17%.

For `CC(=O)OCc1cnc(C)c2oc(=O)c(C(=O)Nc3ccc(F)cc3C)cc12`, the activation was inactive: -11.2%.

`Cc1cccc(N2CCN(c3nc4ccccc4c4nc(-c5ccccc5)nn34)CC2)c1C`: the activation is inactive: 8.49%. For `CCc1ccccc1N1CC(c2nnc(NC(=O)c3ccco3)s2)CC1=O` (configuration not stated) the value was inactive: -12.4%. For `CCN(CC)S(=O)(=O)c1ccc2c(c1)N(CC(=O)N1CCN(c3cc(Cl)ccc3C)CC1)C(=O)CO2` the value was inactive: -8.11%; for `COc1ccc(NC(=O)C2CCN(C(=O)c3sc4nc[nH]c(=O)c4c3C)CC2)c(OC)c1`, inactive: -8.97%; for `COc1ccc(C2CC(=O)c3cc(-c4nc(-c5ccc(Cl)cc5)cs4)c(=O)[nH]c3C2)cc1` (configuration not stated), inactive: 11.2%. The figure for `CCOc1ccc(CNC(=O)C2CCN(C3=NS(=O)(=O)C(c4ccc(C)cc4)=C3CC)CC2)cc1` is inactive: -5.9%; for `COc1cc(NC(=O)c2cc(-c3ccccc3O)no2)cc(OC)c1OC` it is inactive: 2.53%; for `CC(=O)Nc1nonc1-c1nnc(SCC(=O)Nc2ccccc2Cl)n1C` it is inactive: -20.5%. In the case of `O=C(NCC(c1ccc(Cl)cc1)N1CCCCC1)c1ccc(F)cc1` (configuration not stated), the activation is inactive: -18.2%. As to `COc1ccc(C(=O)NCC(c2cccnc2)N2CCN(c3ccc(F)cc3)CC2)cc1` (configuration not stated), the activation is inactive: -6.54%. For `COc1cccc(-c2cc(C(F)(F)F)nc(-n3nc(C)c(Br)c3C)n2)c1` the value was inactive: -18.4%. The figure for `O=C(CSc1ccc2nc(-c3ccccc3)cn2n1)Nc1ccccc1C(F)(F)F` is inactive: -7.31%; for `Cc1ccc(-n2c(SCc3ccccc3F)nc3[nH]ncc3c2=O)cc1C` it is inactive: -26%; for `Cc1cccc(NC(=O)Cn2nc(-c3ccc(Cl)cc3)c3ccccc3c2=O)c1` it is inactive: -2.07%. The figure for `COc1ccccc1CNC(=O)c1cccn1-c1nnc(N2CCCC2)s1` is inactive: 17.9%. Turning to `CCOc1cccc2cc(-c3nc4sc(C(=O)Nc5ccc(C)cc5)c(C)c4c(=O)[nH]3)c(=O)oc12`, the activation is inactive: -6.39%.

Regarding `O=C(Nc1cccc(-c2nc3ncccc3o2)c1)c1ccc(-c2cccc(Cl)c2Cl)o1`, the activation is inactive: 47.7%. For the molecule `Cc1cccc(NC(=O)C(=O)c2cc(C)n(-c3ccccc3)c2C)c1C`, the activation is inactive: -26.8%. The figure for `CCc1nc(-c2cc(S(=O)(=O)N3CCN(c4ccc(F)cc4)CC3)ccc2OC)no1` is inactive: -14.6%; for `COc1ccc(N2CCN(C(=O)CSCc3nc(-c4ccccc4Cl)oc3C)CC2)cc1` it is inactive: 8.18%. On to `CN(C1CCCCC1)S(=O)(=O)c1ccc(C(=O)Nc2sc3c(c2C(N)=O)CC(C)(C)NC3(C)C)cc1`, for which the activation is active: 118%.

Take `Cc1cc(O)c(C(c2cccc(F)c2)N2CCC(C)CC2)c(=O)n1Cc1ccco1` (configuration not stated): the activation is inactive: -10.4%.

With `O=C(Cn1c(=O)n(Cc2cccs2)c(=O)c2cccnc21)Nc1ccccc1F`, the activation was inactive: -39.5%. For the molecule `O=C(NCCc1ccc(Cl)cc1)c1cccn1-c1nnc(N2CCCCC2)s1`, the activation was inactive: -16.6%. For `O=C(Nc1cccc(C(F)(F)F)c1)c1noc2c1CCc1ccccc1-2` the value was inactive: -2.23%.

Take `CC(=O)c1cc(-c2ccccc2)n(CC(=O)NC2CCCCCC2)c1C`: the activation is inactive: 2.61%. With `Cc1cccc(NC(=O)CSc2nc3c(c(=O)[nH]2)CN(Cc2ccc4c(c2)OCO4)CC3)c1C`, the activation is inactive: 27.3%.

For the molecule `CCc1ccc(-n2c(=O)c3cccnc3n2CC(=O)NCc2ccc(F)cc2)cc1`, the activation was inactive: -16.5%. `CNC(=O)c1ccc(Nc2nnc(-c3ccc(C)c(S(=O)(=O)NC(C)(C)C)c3)c3ccccc23)cc1`: the activation was inactive: -8.7%. For the molecule `Cn1c(=O)c(=O)n(C)c2cc(S(=O)(=O)N3CCN(c4ccccc4F)CC3)ccc21`, the activation is inactive: -3.06%. The figure for `COc1ccccc1NC(=O)CCN1CCC(C(N)=O)CC1` is inactive: -3.34%; for `CCOC(=O)N1CCc2c(sc3c2c(=O)n(Cc2ccccc2)c(=O)n3CC(=O)Nc2c(C)cccc2C)C1` it is inactive: -4.69%.

On to `O=C(NCc1cccc(F)c1)c1ccc(CS(=O)c2ccccc2Cl)o1` (configuration not stated), for which the activation is inactive: -8.6%. For `Cc1cc(O)c(C)c(C)c1O` the value was inactive: -11.4%; for `CC1=C(C(N)=O)C(c2ccc(C(C)C)cc2)n2nc(SCc3ccccc3F)nc2N1` (configuration not stated), inactive: 16.9%; for `COc1ccc(CCNC(=O)Cn2c(C)c3cnn(-c4ccccc4)c(=O)c3c2C)cc1OC`, inactive: -2.24%. For `Cc1c(CCNC(=O)c2ccc(C(F)(F)F)cc2)sc2nc(-c3ccc(F)cc3)nn12` the value was inactive: -19.3%. Take `COc1ccc(-c2cc(C)no2)cc1S(=O)(=O)Nc1cccc(C(F)(F)F)c1`: the activation is inactive: 3.34%. For `CCOc1ccc(NC(=O)Cn2cnc3nc4c(cc3c2=O)CCCC4)cc1` the value was inactive: -8.79%. For `COc1ccc(-c2[nH]c(-c3ccc(F)cc3)nc2SCC(=O)Nc2ccc(OC)c(OC)c2)cc1`, the activation is inactive: -23.5%.

On to `Fc1ccc(-n2ncc3c(Nc4ccc(Oc5ccc(Cl)cc5)cc4)ncnc32)cc1`, for which the activation was inactive: -2.44%.
